Paper PMC4336329 (PLoS ONE, 2015)
The whole screen tested about 310,000 compounds, of which about 2,200 (0.71%) showed an effect of 50% or more. Effects have a minus sign here. This is one part of the list.

These molecules were tested against human ether-à-go-go-related gene (hERG) potassium channel (human, UniProt Q12809) (assay: primary screen, population patch clamp on CHO cells stably expressing hERG).
Chain of human ether-à-go-go-related gene (hERG) potassium channel (Q12809 whole entry, looked up): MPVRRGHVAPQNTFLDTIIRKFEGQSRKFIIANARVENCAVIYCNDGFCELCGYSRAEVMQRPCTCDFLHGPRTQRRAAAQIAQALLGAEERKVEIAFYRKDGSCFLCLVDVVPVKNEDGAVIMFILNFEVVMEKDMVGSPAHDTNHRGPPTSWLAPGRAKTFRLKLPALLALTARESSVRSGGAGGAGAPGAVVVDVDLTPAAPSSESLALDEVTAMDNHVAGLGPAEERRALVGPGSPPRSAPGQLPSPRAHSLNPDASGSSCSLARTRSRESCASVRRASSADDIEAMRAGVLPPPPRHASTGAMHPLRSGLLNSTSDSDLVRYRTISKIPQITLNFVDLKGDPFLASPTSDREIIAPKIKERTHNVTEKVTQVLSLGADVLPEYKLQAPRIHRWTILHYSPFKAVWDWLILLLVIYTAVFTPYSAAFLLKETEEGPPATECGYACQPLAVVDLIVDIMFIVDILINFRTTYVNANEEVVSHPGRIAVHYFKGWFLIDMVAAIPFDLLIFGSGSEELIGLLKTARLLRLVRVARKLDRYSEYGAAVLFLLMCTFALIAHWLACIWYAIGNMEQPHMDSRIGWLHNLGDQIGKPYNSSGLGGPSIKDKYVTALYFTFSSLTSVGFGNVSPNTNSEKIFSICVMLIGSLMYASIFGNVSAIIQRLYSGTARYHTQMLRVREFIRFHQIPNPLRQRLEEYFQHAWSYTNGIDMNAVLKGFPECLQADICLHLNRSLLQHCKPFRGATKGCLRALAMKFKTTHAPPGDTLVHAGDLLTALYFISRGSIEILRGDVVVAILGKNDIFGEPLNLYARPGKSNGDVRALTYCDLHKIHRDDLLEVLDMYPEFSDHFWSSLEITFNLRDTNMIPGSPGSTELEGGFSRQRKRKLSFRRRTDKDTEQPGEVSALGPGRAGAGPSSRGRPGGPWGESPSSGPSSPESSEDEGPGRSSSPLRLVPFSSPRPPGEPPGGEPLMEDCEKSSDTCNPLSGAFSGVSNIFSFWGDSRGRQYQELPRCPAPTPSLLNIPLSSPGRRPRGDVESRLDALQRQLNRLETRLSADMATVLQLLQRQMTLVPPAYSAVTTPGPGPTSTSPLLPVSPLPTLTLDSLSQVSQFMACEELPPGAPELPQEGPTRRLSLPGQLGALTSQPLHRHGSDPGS

SMILES	hERG current change (%, negative = inhibition) at 1uM [%]
N#Cc1cccc(NC(=O)c2nc(-c3ccccc3)n(-c3ccccc3)n2)c1	-0.839
Cc1ccc(-c2nnn3c2nc(NCCc2ccc(S(N)(=O)=O)cc2)c2ccccc23)cc1	9.82
CCOc1ccc(-c2cc(N)n(S(=O)(=O)c3ccc(OC)c(OC)c3)n2)cc1	7.14
O=C(Nc1ccc(F)cc1F)c1cc(-c2ccco2)nc2ccccc12	1.79
COc1ccc(CCNC(=O)C(C)c2ccc([N+](=O)[O-])cc2)cc1 (centres unmarked)	-2.82
CCN(CC)CCN(C(=O)c1ccc2c(c1)CCCC2)c1nc2ccc(OC)cc2s1.Cl	3.48
O=C(OCCN=C1NS(=O)(=O)c2ccccc21)C1CC(=O)N(c2ccc(Cl)cc2)C1 (centres unmarked)	5.38
COc1cc(/C=C/C(=O)O)cc(OC)c1OC	8.73
Cc1nn(CC(=O)N2CCCCCC2)c(=O)c2cc3occc3n12	15.5
CC(=O)Nc1ccc(S(=O)(=O)Nc2nccc(/C=C/c3ccc(Cl)cc3)n2)cc1	1.45
O=C(Nc1nc(-c2ccc(F)cc2)cs1)C1CCCO1 (centres unmarked)	3.35
COc1cc2[nH]c(=S)nc(NCc3cccs3)c2cc1OC	12.2
CC(C)C[C@H](NC(=O)C1CC(=O)N(c2ccc3c(c2)OCO3)C1)C(=O)NC1CCCCC1 (some centres unmarked)	26.2
C=CCNC(=O)c1onc(CSc2cc(C)cc(C)c2)c1C(=O)O	9.31
O=C(Cn1c(SCC(=O)N2CCc3ccccc3C2)nc2ccccc21)NC1CCCC1	7.98
O=C(CCCCn1c(=O)[nH]c2ccsc2c1=O)NCc1ccc2c(c1)OCO2	4.87
COc1ccc(-c2[nH]ncc2CN2CCC(OCc3ccccc3)CC2)c(F)c1	-64.5
CCC(CC)C(=O)Nc1cc(C)cc(C)c1	16.9
CCCCNC(=O)c1cc2c(=O)n3cccc(C)c3nc2n(Cc2ccncc2)c1=N	-75.4
CN(C(=O)CSc1ncccn1)C1CCS(=O)(=O)C1 (centres unmarked)	11.6
NC(=O)CN1CCOCCOCCOCCOCCOCC1	11.9
O=C(NCCC1=CCCCC1)c1coc(=O)c(Br)c1	-3.36
Cc1c(C(=O)NCC(c2ccco2)N(C)C)oc2c(Cl)cccc12 (centres unmarked)	-1.19

SMILES	hERG current change (%, negative = inhibition) at 1uM [%]
CCCCCCN1CC(O)=C(c2ccccc2)C1=N	-0.417
COc1ccc(F)cc1S(=O)(=O)NC1CCCC1	10.9
O=C(O)CCC(=O)NNC(=O)COc1ccc(Cl)cc1Cl	8.98
C(=C\c1cc(/C=C/c2ccccc2)ncn1)/c1ccccc1	21.9
COc1ccccc1CN1C(=O)[C@@H]2Cc3c([nH]c4ccccc34)C(C)(C)N2C1=O	12.9
CCOC(=O)c1ccccc1N/C=C/C(=O)c1cccs1	-3.11
COCc1cc(C)nc(Nc2ccccc2OC)c1C#N	10.7
Cn1c(=O)cc(SCC(=O)NCC2CCCO2)c2ccc(Cl)cc21 (centres unmarked)	6.95
COc1cccc(NC(=O)CSc2nnc(NC(=O)C3CCC3)s2)c1	19.7
COc1cc(S(=O)(=O)NC2CCCCC2C)ccc1Cl (centres unmarked)	6.21
COCCN(C(=S)Nc1ccc(C)cc1C)C(C)c1ccco1 (centres unmarked)	5.6
CCCn1c(SCC(=O)Nc2ccccc2Cl)n[nH]c1=O	1.69
CCOC(=O)c1cc(-c2ccccc2)sc1NC(=O)c1cc(OC)c(OC)c(OC)c1	6.59
COc1ccc2c(C)cc3nnnn3c2c1	4.58
O=[N+]([O-])c1cc(/C=N/N2CCN(Cc3ccccc3)CC2)ccc1Cl	8.7
O=C(CN1C(=O)/C(=C/c2ccccc2F)Sc2ccccc21)NCCCN1CCOCC1	-6.97
Cc1ccc(Cn2nnc3c(=O)[nH]c(C4CCN(S(=O)(=O)Cc5ccccc5)CC4)nc32)cc1	10.2
CC(=O)Nc1ccc(-c2nn[nH]n2)cc1Cl	10.6
Cc1ccc2nc(-c3ccccc3)cc(C(=O)O)c2c1	8.03
C=CCC(=O)N1CCCC(CNC(=O)c2ccc(-c3ccccc3)cc2)C1 (centres unmarked)	-0.875
Cc1c(C(=O)Nc2ccc(S(=O)(=O)N(C)C3CCN(C)CC3)cc2)oc2ccccc12	3.99
COc1cccc(C2=NOC(C(=O)NCCN3CCOCC3)C2)c1 (centres unmarked)	6.33
Cn1cc([N+](=O)[O-])c(C(=O)Nc2ccc3nc(-c4ccccc4)[nH]c3c2)n1	4.88

SMILES	hERG current change (%, negative = inhibition) at 1uM [%]
NS(=O)(=O)Cc1noc2ccccc12	11.6
O=C(Nc1ccccc1Cc1ccccc1)c1oc2ccccc2c1COc1ccccc1	12.7
Cc1cccc(-n2c(SCC(N)=O)nc3c(c2=O)C2(CCCCC2)Cc2ccccc2-3)c1	6.74
CC(=O)CC(C)(C)Nc1nc2cc([N+](=O)[O-])ccc2o1	11.6
CCOC(=O)c1c(NC(NC(C)=O)C(Cl)(Cl)Cl)sc(C(C)=O)c1C (centres unmarked)	13.3
CC(=O)Nc1ccc(NC(=S)NC(=O)c2cc3ccccc3o2)cc1	11
COc1ccc(-c2[nH]ncc2CN(C)Cc2ccccn2)c(OC)c1	-4.12
COc1ccc(C)cc1NC(=O)CSc1nnc(-c2cc3cccc(OC)c3o2)n1N	16.6
CC1CCN(C(=O)CSc2nnc(N)s2)CC1	10.8
Fc1cccc(Cl)c1CSc1nnc2ccccn12	12.3
Cc1cccnc1NC1OC(=O)c2ccccc21 (centres unmarked)	8.78
COc1ccc(CCC(=O)Nc2ccc(S(=O)(=O)N3CCCC3)cc2)cc1OC	4.82
COc1cc(S(=O)(=O)NC2CCSc3ccccc32)ccc1NC(C)=O (centres unmarked)	17.4
CC1(C)S[C@@H]2[C@H](NC(=O)COc3ccccc3)C(=O)N2C1C(=O)OCC1CCCCC1 (some centres unmarked)	8.97
Cc1ccccc1-n1c(CSC(=N)N)nc2ccccc2c1=O.Cl	10.6
Cc1cccc(SC2CCN(Cc3nc(CC4CC4)no3)CC2)c1	4.44
CCCn1c(N)[n+](CC(=O)c2ccco2)c2ccccc21.[Br-]	7.08
COc1ccc(OCc2nnc(SCC(=O)Nc3ccccc3F)o2)cc1	9.17
O=C(CSc1nc2ccccc2c(=O)[nH]1)c1ccc(O)c(O)c1	-5.29
O=C(Cn1cnc2ccccc2c1=O)NCCC(=O)Nc1ccc(F)cc1	19.3
COC(=O)c1ccc(/C=C2\Oc3ccccc3NC2=O)cc1	11.7
COc1ccc2nc(N/C(N)=N/C(=S)Nc3ccccc3)nc(C)c2c1	16.2
COc1cc(C(=O)NCc2nnc(SCC(=O)N3CCCC3)o2)cc(OC)c1OC	16.9

SMILES	hERG current change (%, negative = inhibition) at 1uM [%]
CC(=O)c1ccc(-c2cccc(-c3nc4ccccn4c3NC3CCCCC3)c2)cc1.O=C(O)C(F)(F)F	10.5
C/C(CC(=O)NCc1ccc(Cl)cc1)=N\NC(=O)c1ccccc1F	8.84
O=C(CSc1nnc(-c2cccnc2)o1)N1CCCCC1	12.6
Brc1cnc(N2CCCCC2)nc1N1CCOCC1	6.67
O=C(O)C(=O)O.c1ccc(-c2ccccc2OCCCN2CCCCCC2)cc1	-52.7
Cc1ccc(C(=O)/C=C/Nc2ccc(S(=O)(=O)Nc3onc(C)c3C)cc2)cc1	7.31
COc1ccc(NC(=O)C23CC4CC(C2)CC(n2cnc(Br)n2)(C4)C3)cc1Cl	-3.2
COc1ccc(C(=O)NCC(=O)NCC(c2ccco2)N(C)C)cc1OC (centres unmarked)	3.86
CCOC(=O)c1cc(NC(=O)N(CC)CC)c(C)nc1C	4.59
COc1ccc(OC)c(C(=O)c2c(C)oc3cc(Br)c(O)c(CN(C)C)c23)c1.Cl.O	-0.292
Cc1cc(C)cc(NC(=O)CN(C)S(=O)(=O)c2cnc[nH]2)c1	15.4
CC(=O)c1c(C)[nH]c(C(=O)OCC(=O)N2CC(=O)Nc3ccccc32)c1C	9
Cc1ccc(C)c(S(=O)(=O)N/N=C2/CCCc3ccccc32)c1	9.92
Cc1ccc(F)cc1CNC(=O)C1CCC(=O)N(CC2CCCCC2)C1 (centres unmarked)	20.5
COc1ccccc1NC(=O)Nc1ccccc1C(N)=O	9.63
CN(CC(=O)Nc1ccc(F)c(F)c1)S(=O)(=O)c1cccc2nsnc12	-1.55
COc1ccccc1C(=O)N/C(=C\c1ccc(Br)cc1)C(=O)N1CCCC1	-1.22
Cc1ccc(S(=O)(=O)Nc2nc(C)c(C(=O)NNS(=O)(=O)c3ccccc3)s2)cc1	9.71
CC(=O)c1ccc(NC(=S)N2CCC(Cc3ccccc3)CC2)cc1	15.2
Cc1ccc2c(c1)nnn2C1CCN(CC(=O)NCCc2nc3ccccc3[nH]2)CC1	-4.28
